Out of some 300,000 compounds screened, about 1,200 (0.4%) were called active. The inconclusive results got no clear call from the source; some entries with a clear call stand among them for comparison. The call rests on the fitted dose curve; in most records, active means well fitted inhibition curve with a large enough effect; inconclusive means small, poorly fitted or top-dose-only effect, or another doubt; inactive means no such curve, though single readings can be large or run the other way. A potency beside an inconclusive call is a rough fit, not a confirmed value.
target: Lysosomal alpha-glucosidase (Homo sapiens) (UniProt P10253); assay: qHTS Assay for Inhibitors and Activators of Human alpha-Glucosidase Cleavage of Glycogen; conditions: recombinant GAA, glycogen substrate, Amplex Red glucose oxidase fluorescence; activity change, negative = inhibition: at 76.4 µM (top of the series) unless noted;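 on activity change, negative = inhibition: 0% = full enzyme reaction and -100% = no-enzyme basal signal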
Method in brief: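 Recombinant enzyme (4 nM final) with compounds titrated up to 77 uM and bovine liver glycogen (30 ug) in citrate pH 5.0, 0.01% Tween-20, 37 C 40 min. Released glucose detected by Amplex Red/glucose oxidase (Ex 573/Em 610); AC50 from Hill fits.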
Potency means the concentration at half of the fitted maximal effect.

Q: With `Cc1cc(-c2n[nH]c(=S)n2/N=C/C(Cl)=C/c2ccccc2)n[nH]1` as the compound, how does the Potency read?
A: Its Potency is inconclusive: 12.6 µM [inhibitor, partial curve].

Q: `N#CCCn1nc(-c2ccccc2)cc1Nc1ccccc1NC(=O)c1cccs1` was tested. Which Potency did it give?
A: Its Potency is inconclusive: 17.6 µM [inhibitor, partial curve].

Q: Which Potency does the source give for `N#CC1(C#N)CC(C=O)=C(N)C1(C#N)CC(=O)c1ccc(F)cc1` (stereo not given) here?
A: The Potency was inconclusive: 22.2 µM [inhibitor, partial curve].

Q: For `Cc1ccccc1Nc1c(-c2ccc(O)cc2)nc2c(C)cccn12`, which Potency is on record?
A: The Potency was inconclusive: 22.4 µM [inhibitor, partial curve].

Q: `Cc1ccc2c(c1)-c1c(cnn1CC(=O)N1CCN(c3cccc(C(F)(F)F)c3)CC1)CO2` was tested. Which Potency did it give?
A: The Potency was inconclusive: 6.31 µM [inhibitor, single point].

Q: For `CC(=O)c1c(C)[nH]c(C(=O)OCC(=O)N2CCc3ccccc32)c1C`, which activity change, negative = inhibition is on record?
A: Its activity change, negative = inhibition is inconclusive: 47.5% [activator].

Q: How did the Potency turn out when `CN1CCN(C(=S)Nc2ccc([N+](=O)[O-])cc2)CC1` was run?
A: Its Potency is inconclusive: 39.5 µM [inhibitor, single point].

Q: For `O=c1ccc2cc(O)c(O)cc2o1`, which Potency is on record?
A: Its Potency is active: 6.31 µM.

Q: `O=C(Sc1nnc(-c2ccccc2)o1)N1c2ccccc2Sc2ccccc21` was tested. Which Potency did it give?
A: Its Potency is inconclusive: 35.5 µM [inhibitor, single point].

Q: How did the Potency turn out when `O=[N+]([O-])c1ccc(N/N=C/c2cccc(O)c2O)c(S(=O)(=O)N2CCOCC2)c1` was run?
A: Its Potency is inconclusive: 3.55 µM [inhibitor, full curve].

Q: Which Potency does the source give for `COc1ccc(-c2cc(=O)oc3c(O)c(O)ccc23)cc1` here?
A: The Potency was inconclusive: 5.01 µM [inhibitor, single point].

Q: `Fc1cccc(NC(=S)NNc2ccccc2)c1` was tested. Which Potency did it give?
A: Its Potency is inconclusive: 31.6 µM [inhibitor, single point].

Q: How did the Potency turn out when `CCOc1ccc(S(=O)(=O)Nc2nc3ccccc3nc2Nc2ccc(N3CCOCC3)cc2)cc1` was run?
A: Its Potency is inconclusive: 20 µM [inhibitor, partial curve].

Q: For `C/C(=N\Nc1nncc2ccccc12)c1ccc(OCC(=O)N(C)C)cc1`, which Potency is on record?
A: Its Potency is inconclusive: 31.6 µM [inhibitor, single point].

Q: For `Cc1ccc(S(=O)(=O)Cn2nnnc2C(CC(C)C)N2CCN(C(=O)c3ccco3)CC2)cc1` (stereo not given), which “activity change, negative = inhibition” value is on record?
A: The value was inactive: -16.3%.

Q: For `COc1ccc2c(c1)C(=O)N(c1ccccc1)C(=O)C2`, which Potency is on record?
A: The Potency was inconclusive: 11.1 µM [inhibitor, partial curve].

Q: For `C/C(=N\NC(=O)CC#N)c1cc2ccc(O)cc2oc1=O`, which Potency is on record?
A: Its Potency is inconclusive: 11.2 µM [inhibitor, single point].

Q: How did the Potency turn out when `CCOC(=O)Nc1sc(NS(=O)(=O)c2ccccc2)nc1C` was run?
A: The Potency was inconclusive: 15.7 µM [inhibitor, partial curve].

Q: With `Cc1ccc(-c2nnc(Nc3ccc(O)cc3)c3ccccc23)cc1S(=O)(=O)N1CCN(C)CC1` as the compound, how does the Potency read?
A: Its Potency is active: 15.8 µM.

Q: With `CCOCCCNC(=O)C1CCN(c2nn3cc(-c4ccc(F)cc4)nc3s2)CC1` as the compound, how does the “activity change, negative = inhibition” value read?
A: Its value is inactive: 16.3% [at 76.3 µM].

Q: How did the Potency turn out when `O=C(NCc1n[nH]c(=S)n1-c1ccc(Br)cc1)c1ccc(S(=O)(=O)N2CCCCC2)cc1` was run?
A: Its Potency is inconclusive: 44.7 µM [inhibitor, single point].

Q: For `CCOc1ccc(-c2nonc2NC(=O)c2oc3c(C)c(C)ccc3c2C)cc1OCC`, which “activity change, negative = inhibition” value is on record?
A: Its value is inactive: 8.08% [at 76.3 µM].

Q: For `Nc1c(-c2nc(-c3cccs3)no2)nnn1-c1ccccc1Cl`, which “activity change, negative = inhibition” value is on record?
A: Its value is inactive: -6.25% [at 76.3 µM].

Q: For `Clc1ccccc1CONc1ncnc2nonc12`, which “activity change, negative = inhibition” value is on record?
A: The value was inactive: 1.98%.

Q: `Nc1ccc(OCc2ccco2)cc1` was tested. Which Potency did it give?
A: Its Potency is inconclusive: 28.2 µM [inhibitor, single point].

Q: `Fc1cccc(NC(=S)NNc2c3ccccc3nc3ccccc23)c1` was tested. Which Potency did it give?
A: Its Potency is inconclusive: 4.47 µM [inhibitor, single point].

Q: With `C/C(=N\OC(=O)c1cccc(C)c1)c1sc(-c2ccccc2)nc1C` as the compound, how does the Potency read?
A: The Potency was inconclusive: 44.7 µM [inhibitor, partial curve, poor fit].

Q: Which Potency does the source give for `CCN1CCN(c2ccc(N=Cc3ccccc3O)cc2)CC1` here?
A: The Potency was inconclusive: 8.84 µM [inhibitor, partial curve].

Q: How did the Potency turn out when `NS(=O)(=O)c1ccc(CCNC(=O)CN2CCN(c3ccccc3O)CC2)cc1` was run?
A: Its Potency is inconclusive: 7.94 µM [inhibitor, full curve].

Q: With `NNC(=O)c1sccc1OCc1ccc(Cl)cc1Cl` as the compound, how does the Potency read?
A: The Potency was inconclusive: 39.8 µM [inhibitor, single point].

Q: How did the Potency turn out when `C/C(=N\Nc1nnc2c3ccccc3n(C)c2n1)c1ccc(C)o1` was run?
A: Its Potency is inconclusive: 50.1 µM [inhibitor, single point].

Q: For `CCS(=O)(=O)N1CCc2cc(C(=O)Nc3ccc(OC)c(Cl)c3)ccc21`, which “activity change, negative = inhibition” value is on record?
A: The value was inactive: -18.7% [at 76.3 µM].

Q: Which Potency does the source give for `CCOc1ccc(CCNC(=O)c2sc3nc4n(c(=O)c3c2C)CCCC4)cc1OCC` here?
A: Its Potency is inconclusive: 50.1 µM [activator, single point].

Q: With `Cc1[nH]n(-c2ccccc2)c(=O)c1C(C[N+](=O)[O-])c1ccc(F)cc1` (stereo not given) as the compound, how does the “activity change, negative = inhibition” value read?
A: The value was inactive: 3.15%.

Q: For `COC(=O)c1cc(NS(=O)(=O)c2ccc(OC)c(OC)c2)ccc1Cl`, which Potency is on record?
A: The Potency was inconclusive: 31.6 µM [inhibitor, partial curve].

Q: How did the Potency turn out when `Nc1c(-c2ccccc2)n[nH]c1-c1ccccc1` was run?
A: Its Potency is inconclusive: 14 µM [inhibitor, partial curve].

Q: For `CCOc1cc(C2NN=C(c3ccc(C)cc3)S2)ccc1O` (stereo not given), which Potency is on record?
A: The Potency was inconclusive: 39.8 µM [activator, single point].

Q: `O=S(=O)(NCCc1nnc2ccc(SCc3ccc(Cl)cc3Cl)nn12)c1ccccc1` was tested. Which “activity change, negative = inhibition” value did it give?
A: Its value is inactive: -7.52% [at 76.3 µM].

Q: `O=C(NNc1ccccn1)c1ccccc1CC[N+](=O)[O-]` was tested. Which Potency did it give?
A: Its Potency is inconclusive: 3.55 µM [inhibitor, full curve].

Q: For `COc1ccc(C(=O)NNc2ccccc2)cc1`, which Potency is on record?
A: Its Potency is inconclusive: 11.1 µM [inhibitor, partial curve].

Q: How did the Potency turn out when `COc1cc(C2C3=C(CCCC3=O)Nc3[nH]n(-c4ccccc4)c(=O)c32)ccc1O` (stereo not given) was run?
A: Its Potency is active: 28.2 µM.

Q: `COc1ccc(C2=NOC(C(=O)Nc3cc(C)on3)C2)cc1OC` (stereo not given) was tested. Which “activity change, negative = inhibition” value did it give?
A: Its value is inactive: 0.258%.

Q: Which Potency does the source give for `CCNC(=S)NNc1nnc(-c2ccccc2)c(-c2ccccc2)n1` here?
A: Its Potency is inconclusive: 25.1 µM [inhibitor, partial curve].

Q: For `NNc1nc(-c2ccccc2)cc(-c2ccccc2)n1`, which “activity change, negative = inhibition” value is on record?
A: Its value is inactive: -16.5%.

Q: How did the “activity change, negative = inhibition” value turn out when `COc1cc(C2Sc3ccccc3NC3=C2C(=O)OC3)cc(OC)c1OC` (stereo not given) was run?
A: The value was inactive: 5.17%.

Q: With `FC(F)(F)c1ccc(C2Nc3cccc4cccc(c34)N2)cc1` as the compound, how does the Potency read?
A: The Potency was inconclusive: 28.2 µM [inhibitor, partial curve].

Q: With `S=c1nc(-c2cccc(Br)c2)[nH][nH]1` as the compound, how does the Potency read?
A: The Potency was inconclusive: 22.4 µM [inhibitor, partial curve].

Q: Which Potency does the source give for `C/C(=N\Nc1ccc(Cl)cc1)c1ccccn1` here?
A: Its Potency is active: 7.08 µM.

Q: Which Potency does the source give for `Cc1ccc(S(=O)(=O)Nc2c(Cl)c(Cl)c(O)c3ccccc23)cc1` here?
A: Its Potency is inconclusive: 35.5 µM [inhibitor, single point].

Q: `Cc1cccc(CNc2ncc(-c3cccc([N+](=O)[O-])c3)n2C)c1` was tested. Which Potency did it give?
A: The Potency was inconclusive: 24.9 µM [inhibitor, single point].

Q: With `COc1ccc(OC)c(NC(=O)NNC(=O)c2cc3occc3[nH]2)c1` as the compound, how does the Potency read?
A: Its Potency is inconclusive: 50.1 µM [inhibitor, single point].

Q: How did the Potency turn out when `O=C(CCc1ccc(O)c(O)c1)NNC(=S)Nc1ccc(Br)cc1Cl` was run?
A: Its Potency is inconclusive: 7.08 µM [inhibitor, partial curve].

Q: With `CCOc1cccc(CN2CCN(c3cccc(C(F)(F)F)c3)CC2)c1O` as the compound, how does the Potency read?
A: Its Potency is inconclusive: 11.2 µM [inhibitor, partial curve].

Q: Which “activity change, negative = inhibition” value does the source give for `O=C(c1ccc(Br)cc1)N1CCN(Cc2ccccc2)CC1` here?
A: Its value is inactive: -9.29% [at 76.3 µM].

Q: Which “activity change, negative = inhibition” value does the source give for `CCOC(=O)C1CCN(C(=O)c2cc(COc3ccc(OC)c4ccccc34)on2)CC1` here?
A: Its value is inactive: -4.32% [at 76.3 µM].

Q: Which Potency does the source give for `COc1ccc(O)c(-c2cn[nH]c2-c2cccs2)c1` here?
A: The Potency was inconclusive: 15.8 µM [inhibitor, partial curve].

Q: With `CN(C)/C=C/c1oc2ccc(O)cc2c1[N+](=O)[O-]` as the compound, how does the Potency read?
A: Its Potency is inconclusive: 8.84 µM [inhibitor, partial curve].

Q: `CCOC(=O)c1c(NC(=O)Nc2ccc(C)cc2)sc2c1CCN(C)C2` was tested. Which Potency did it give?
A: Its Potency is inconclusive: 50.1 µM [activator, single point].

Q: For `C1=Cc2ccccc2Nc2ccccc21`, which Potency is on record?
A: Its Potency is active: 15.7 µM.

Q: How did the Potency turn out when `O=C(CNc1ccc(C(F)(F)F)cc1[N+](=O)[O-])OCC(=O)c1ccccc1` was run?
A: The Potency was inconclusive: 28.2 µM [inhibitor, partial curve].

Q: Which Potency does the source give for `COc1cccc(N2C(=O)CC(N3CCc4ccccc43)C2=O)c1` (stereo not given) here?
A: Its Potency is active: 39.5 µM.

Q: How did the Potency turn out when `Cc1nc2ccccc2nc1N/N=C/c1ccc(O)cc1O` was run?
A: The Potency was inconclusive: 12.6 µM [inhibitor, partial curve].

Q: With `Cc1cc(C(=O)Cn2nc(C(=O)O)c3ccccc3c2=O)c(C)n1C1CC1` as the compound, how does the “activity change, negative = inhibition” value read?
A: The value was inactive: 0.275%.

Q: How did the Potency turn out when `CC(NC(=S)NNS(=O)(=O)c1ccc(C(C)(C)C)cc1)c1ccccc1` (stereo not given) was run?
A: The Potency was inconclusive: 25.1 µM [inhibitor, partial curve].

Q: For `CC1=NNC(=O)C1CC(=O)N/N=C(/C)c1cccc([N+](=O)[O-])c1` (stereo not given), which Potency is on record?
A: The Potency was inconclusive: 25.1 µM [inhibitor, single point].

Q: How did the Potency turn out when `NS(=O)(=O)c1ccc(NNC(=O)c2ccccc2)cc1` was run?
A: The Potency was inconclusive: 15.7 µM [inhibitor, partial curve].

Q: For `Cc1ccc(-c2csc(=Nc3ccccc3)n2Cc2ccc3c(c2)OCO3)cc1C`, which “activity change, negative = inhibition” value is on record?
A: The value was inactive: -12% [at 76.3 µM].

Q: Which Potency does the source give for `O=C(NNS(=O)(=O)c1ccccc1)c1cnn(-c2ccccc2)c1-n1cccc1` here?
A: Its Potency is inconclusive: 31.6 µM [inhibitor, partial curve, poor fit].

Q: For `O=c1[nH]c2ccc(NCc3ccccc3OCc3ccc(Cl)cc3)cc2[nH]1`, which Potency is on record?
A: Its Potency is inconclusive: 50.1 µM [inhibitor, single point].

Q: Which Potency does the source give for `O=C(NNc1ccc(Cl)cc1)c1cccs1` here?
A: Its Potency is inconclusive: 14.1 µM [inhibitor, partial curve].
